Results published in the RNAGym collection of RNA variant scans (doi:10.1073/pnas.2313332121).
Variants at the background level are over-represented here.

B1: TPR 5TU (parent)
chain: GGAUCUUCUCGAUCUAACAAAAAAGACAAAUCUGCCACAAAGCUUGAGAGCAUCUUCGGAUGCAGAGGCGGCAGCCUUCGGUGGCGCGAUAGCGCCAACGUUCUCAACUAUGACACGCAAAACGCGUGCUCCGUUGAAUGGAGUUUAUCAUG

Variants of: B1
Test: polymerase ribozyme fitness, log enrichment relative to wild type (log ratio); higher = more active; in vitro selection for triplet polymerase activity
Procedure, shortened: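 Libraries of mutants in each subunit of a heterodimeric triplet polymerase ribozyme were generated by PCR and transcribed. In triplicate, each went through one in vitro selection round: annealing with biotinylated primer, partner subunit and triplets; frozen incubation at −7 °C; gel excision of extended constructs; streptavidin-bead capture; RT-PCR. Fitness, taken from Illumina sequencing of input and output libraries, is the logarithm of a genotype's enrichment over wild-type enrichment, averaged across replicates with inverse-variance weights. The logarithm is base 2, and genotypes needed ≥10 input reads and ≥1 read per output to be kept.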

| Variant | polymerase ribozyme fitness (log ratio) |
| --- | --- |
| U56C G67U A91C A97U C123A | ≤ -4.2 |
| U56C G81U G92U C108G | ≤ -4.2 |
| U56C G84C C87U C103G A106C A119C | ≤ -4.2 |
| U56C U109A U127C | -3.65 |
| U56G A60C A91C G92C G143A | ≤ -4.2 |
| U56G C76U C103A | ≤ -4.2 |
| U56G C93G A97G A106G U134A | ≤ -4.2 |
| U56G C114U | -1.85 |
| U56G C116G | -0.0028 |
| U56G G58C C99G | -2.63 |
| U56G G59C C85G U135A | -2.51 |
| U56G G65U C76U C87A A107C U145A | ≤ -4.2 |
| U56G G67A G86U A97G | ≤ -4.2 |
| U56G G71C C85U C116A | ≤ -4.2 |
| U56G G84A G133A | ≤ -4.2 |
| U56G G84U C85A C99U | ≤ -4.2 |
| U56G G88A | ≤ -4.2 |
| U56G U78C C85A C123U | -1.43 |
| U56G U78G C79U G86A C87G C95A A115U G152C | ≤ -4.2 |
| U56G U82A A89G C95U G133C | -3.49 |
| U56G U146G | -3.46 |

| Variant | polymerase ribozyme fitness (log ratio) |
| --- | --- |
| C57A | -0.00233 |
| C57A A60C | -1.35 |
| C57A A60C C85A | -3.08 |
| C57A A66U G88A U101G | ≤ -4.2 |
| C57A A73C C87A C103A C123U U148A | ≤ -4.2 |
| C57A A73G G80C C114U U134A | ≤ -4.2 |
| C57A A73U G80C U101G A106U | ≤ -4.2 |
| C57A A91U G100A A107G A110G | ≤ -4.2 |
| C57A A150U | 1.72 |
| C57A C63U C87U G94C A97U G117U U134G | ≤ -4.2 |
| C57A C63U G67U C79U G86U | ≤ -4.2 |
| C57A C69G A91U A119G G128A G140C U145G | ≤ -4.2 |
| C57A C69U C87G C114U U139G G140U U146C | ≤ -4.2 |
| C57A C72U A150U | -0.157 |
| C57A C75A U134G | ≤ -4.2 |
| C57A C75G C85G C103U U135A | ≤ -4.2 |
| C57A C75U U82G G92C A110U G140C U151C | ≤ -4.2 |
| C57A C76U C85U G92C G126C | -2.15 |
| C57A C79A G81A C96G | ≤ -4.2 |
| C57A C79U C85U G92A C95G | ≤ -4.2 |
| C57A C85A | -1.28 |

| Variant | polymerase ribozyme fitness (log ratio) |
| --- | --- |
| C57A C85U A107G | ≤ -4.2 |
| C57A C87A C116G U127A C129U A137G C149U | ≤ -4.2 |
| C57A C87G U134A U135C | ≤ -4.2 |
| C57A C87U C103G | -2.01 |
| C57A C87U G100U G124A | ≤ -4.2 |
| C57A G59C G84U A107G A115U A137G C149U | ≤ -4.2 |
| C57A G59C U146C U148A C149U | -3.99 |
| C57A G62A G81U A113G A120U U127C G136A A142C | ≤ -4.2 |
| C57A G67C C87G C114G | ≤ -4.2 |
| C57A G68A A97G A120U G141U | ≤ -4.2 |
| C57A G68A C93U C125A | ≤ -4.2 |
| C57A G70A G86U C96A C99U U134C U146C | ≤ -4.2 |
| C57A G80C A137C G143U | ≤ -4.2 |
| C57A G80C U109C | ≤ -4.2 |
| C57A G86U C123U C125U | -0.745 |
| C57A G92A A150C | ≤ -4.2 |
| C57A G92A C93U C105A A107G G128A | ≤ -4.2 |
| C57A G92U | -0.638 |
| C57A G117U | 0.691 |
| C57A U61A G71A C116A | ≤ -4.2 |
| C57A U127A | -3.56 |

| Variant | polymerase ribozyme fitness (log ratio) |
| --- | --- |
| C57A U135C | -1.62 |
| C57A U139A | -3.84 |
| C57G | -0.448 |
| C57G A64C A107C | ≤ -4.2 |
| C57G A73U C118G A121U G140U | ≤ -4.2 |
| C57G A91G | -4.08 |
| C57G A91G G100A C123A C131A | ≤ -4.2 |
| C57G A97U A107C | ≤ -4.2 |
| C57G A120U U144A | -1.24 |
| C57G C75A C95A | ≤ -4.2 |
| C57G C79U | -2.13 |
| C57G C85A G94A C131A U139C | ≤ -4.2 |
| C57G C85G A110U C118A A122U C123U | ≤ -4.2 |
| C57G C85G C93G C108G U127G | ≤ -4.2 |
| C57G C87U A91C C129G U130A U135A G141U A150C | ≤ -4.2 |
| C57G C96A U139G | -0.754 |
| C57G C99U U111G G124U | ≤ -4.2 |
| C57G G58A A91G | -3.24 |
| C57G G59C C75A C76G C125A G133C U148A | ≤ -4.2 |
| C57G G67U G92C A106C | ≤ -4.2 |
